{
  "source": "PubChem BioAssay AID504332",
  "about": "(National Center for Advancing Translational Sciences (NCATS), 2011)",
  "note": "Where “and” joins values, the source holds several entries; their conditions need not be identical. Equal values may be shown once. In all, about 350,000 compounds went through this assay and about 31,000 (8.9%) were called active. The inconclusive results got no clear call from the source; some entries with a clear call stand among them for comparison. Calls follow the shape of the dose curve; as a rule, active = well fitted inhibition curve with a large enough effect; inconclusive = small, poorly fitted or top-dose-only effect; inactive = no such curve, though single readings can be large or run the other way. A potency beside an inconclusive call is a rough fit, not a confirmed value. Some structures have more than one record in an assay (separate samples or runs), and their calls can disagree. % is scaled to controls: 0 for no effect and ±100 for the full control effect; potency is read from the fitted curve at half-maximal effect; tags tell the direction and shape of the fitted curve.",
  "data": [
    {"target": "Histone-lysine N-methyltransferase EHMT2 (Homo sapiens) (UniProt Q96KQ7)", "sequence (Q96KQ7 whole entry, looked up)": "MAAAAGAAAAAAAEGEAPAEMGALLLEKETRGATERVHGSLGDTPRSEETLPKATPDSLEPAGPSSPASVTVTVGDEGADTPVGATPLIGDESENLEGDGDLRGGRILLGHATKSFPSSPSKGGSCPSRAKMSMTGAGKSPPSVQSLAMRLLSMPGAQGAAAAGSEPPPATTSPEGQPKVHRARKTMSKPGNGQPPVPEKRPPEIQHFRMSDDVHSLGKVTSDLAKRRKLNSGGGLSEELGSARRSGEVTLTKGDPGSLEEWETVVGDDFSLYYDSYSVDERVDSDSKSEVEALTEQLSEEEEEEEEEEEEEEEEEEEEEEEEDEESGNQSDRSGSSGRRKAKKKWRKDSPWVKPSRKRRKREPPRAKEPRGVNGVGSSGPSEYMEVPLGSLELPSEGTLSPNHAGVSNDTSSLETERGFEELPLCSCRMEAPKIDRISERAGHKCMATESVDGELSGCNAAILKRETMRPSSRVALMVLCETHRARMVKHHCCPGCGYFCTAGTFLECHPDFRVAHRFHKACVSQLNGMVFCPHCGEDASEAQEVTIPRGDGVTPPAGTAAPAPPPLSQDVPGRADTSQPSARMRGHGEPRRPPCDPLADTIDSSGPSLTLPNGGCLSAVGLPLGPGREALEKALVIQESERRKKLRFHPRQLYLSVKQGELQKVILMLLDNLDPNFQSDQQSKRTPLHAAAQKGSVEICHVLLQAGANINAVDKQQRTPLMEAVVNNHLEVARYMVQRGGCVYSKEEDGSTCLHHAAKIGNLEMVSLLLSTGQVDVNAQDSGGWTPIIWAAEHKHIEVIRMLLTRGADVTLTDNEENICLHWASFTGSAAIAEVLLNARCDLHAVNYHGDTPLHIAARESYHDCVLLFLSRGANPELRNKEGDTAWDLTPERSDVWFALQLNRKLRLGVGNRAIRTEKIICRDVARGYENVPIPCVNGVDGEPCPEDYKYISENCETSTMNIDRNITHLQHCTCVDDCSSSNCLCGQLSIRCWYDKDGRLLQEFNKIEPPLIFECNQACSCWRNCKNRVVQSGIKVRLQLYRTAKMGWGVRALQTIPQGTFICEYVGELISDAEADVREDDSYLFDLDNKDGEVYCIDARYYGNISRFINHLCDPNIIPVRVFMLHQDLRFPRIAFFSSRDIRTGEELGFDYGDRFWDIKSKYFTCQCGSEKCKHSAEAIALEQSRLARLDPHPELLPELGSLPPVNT", "experiment": "qHTS Assay for Inhibitors of Histone Lysine Methyltransferase G9a; also: nearly all actives have a fitted effect of over 75% in size", "conditions": "G9a H3K9 monomethylation, AlphaScreen, 2 h; activity, negative = inhibition: at 59 µM (top of the series) unless noted", "procedure,_shortened": "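Enzyme 20 nM + cpd, 15 min RT; add b-H3K9 pep 500 nM / SAM 20 uM; 2 h RT; anti-H3K9me1 Ab 0.5 ug/mL + SA donor / anti-rabbit acceptor beads 20 ug/mL each, 10 min; AlphaScreen read.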", "values": [
      {"smiles": "CCC(=O)Nc1ccc2c(c1)ncn2C", "Potency": "inactive"},
      {"smiles": "CCOC(=O)c1sc2nc3n(c(=O)c2c1C)CCC(C)CC3", "note": "(stereo not given)", "Potency": "active: 10 µM"},
      {"smiles": "Cc1ccc(C)c(OCC(=O)Nc2ccc(N3CCOCC3)cc2N2CCOCC2)c1", "Potency": "inconclusive: 3.55 µM [inhibitor, single point]"},
      {"smiles": "CCOc1ccc(C(O)(c2ccccc2OC)C(CN2CCCC2)c2ccccc2)cc1", "note": "(stereo not given)", "Potency": "inconclusive: 89.1 µM [inhibitor, single point]"},
      {"smiles": "CCOC(=O)C1C(=O)NCC2CCCC21", "note": "(stereo not given)", "activity, negative = inhibition": "inactive: 12.3% [at 12.7 µM]"},
      {"smiles": "S=C(NCc1ccco1)N1CCN(c2ccccn2)CC1", "Potency": "inconclusive: 39.8 µM [inhibitor, full curve, poor fit]"},
      {"smiles": "Cc1ccc(-c2nc(N)sc2-c2ccc(C)cc2)cc1", "Potency": "active: 50.1 µM"},
      {"smiles": "CC1(C)Cc2c(sc3ncnc(NN)c23)CO1", "Potency": "inactive"},
      {"smiles": "Cn1c(C(=O)O)c(CC(=O)N2CCC(Cc3ccccc3)CC2)c2ccccc21", "Potency": "inconclusive: 89.1 µM [inhibitor, single point]"},
      {"smiles": "Cc1ccc(NCc2nnc(SCc3ccc(C#N)cc3)n2Cc2ccco2)c(C)c1", "activity, negative = inhibition": "inconclusive: -69.9% [inhibitor]"},
      {"smiles": "C/C(=N\\O)C(C)(C)Nc1ccc(Cl)cc1", "Potency": "inconclusive: 35.5 µM [inhibitor, partial curve, poor fit]"},
      {"smiles": "COc1ccc(C(C(=O)NCC2CCCO2)N(C(=O)c2snc(C(N)=O)c2N)c2ccc(C)cc2)cc1OC", "note": "(stereo not given)", "Potency": "inconclusive: 79.4 µM [inhibitor, single point]"},
      {"smiles": "CCSc1nnc(N2C(=O)C(O)=C(C(=O)c3ccco3)C2c2cccc(OC)c2)s1", "note": "(stereo not given)", "Potency": "active: 35.5 µM"},
      {"smiles": "O=C(CSc1nc2ccccc2n1Cc1ccc(F)cc1)N1CCN(c2ccc(F)cc2)CC1", "Potency": "inactive"},
      {"smiles": "OCCOCCN1CCN(C(=S)Nc2ccccc2)CC1", "Potency": "inconclusive: 56.2 µM [inhibitor, partial curve, poor fit]"},
      {"smiles": "Cc1ccc(/C=C/C(=O)N2CCN(c3ccc(F)cc3)CC2)o1", "Potency": "inconclusive: 25.1 µM [inhibitor, single point]"},
      {"smiles": "CCc1ccc(-c2nc(CN3CCC(C(=O)NCCc4ccc(C)cc4)CC3)c(C)o2)cc1", "Potency": "inactive"},
      {"smiles": "O=C(CSc1nc2[nH]ncc2c(=O)n1-c1ccccc1)N1CCCc2ccccc21", "Potency": "active: 8.91 µM"},
      {"smiles": "CCn1c(SCC(=O)N/N=C/C=C/c2ccco2)nnc1-c1ccc(OC)cc1", "Potency": "active: 35.5 µM"},
      {"smiles": "Cc1c(Cl)cnc(NC(=O)COC(=O)c2cccs2)c1Cl", "activity, negative = inhibition": "inactive: 22.9% [at 12.7 µM]"},
      {"smiles": "O=C(NCCC1=CCCCC1)C1CCN(c2nc3ccccc3o2)CC1", "Potency": "inactive"},
      {"smiles": "Cc1cccc(N(CC(=O)NCc2ccccc2)S(C)(=O)=O)c1C", "Potency": "inactive"},
      {"smiles": "O=C(Nc1nc(-c2ccccc2)cs1)c1ccc(Br)o1", "activity, negative = inhibition": "inconclusive: -65.6% [inhibitor]"},
      {"smiles": "COC(=O)c1ccc(NC(=S)Nc2ccccn2)cc1", "Potency": "inconclusive: 35.5 µM [inhibitor, single point]"},
      {"smiles": "CC(=O)C1=C(O)C(=O)N(c2cccnc2)C1c1cccc([N+](=O)[O-])c1", "note": "(stereo not given)", "Potency": "inconclusive: 70.8 µM [inhibitor, partial curve]"},
      {"smiles": "Cc1cc(C)c2c(=O)cc(C(=O)Nc3ccc(C)c(Cl)c3)oc2c1", "Potency": "inconclusive: 0.316 µM [inhibitor, partial curve, poor fit]"},
      {"smiles": "COc1cccc(N2CCN(C(=O)c3oc4ccccc4c3NC(=O)CCc3cc(OC)no3)CC2)c1", "Potency": "active: 56.2 µM"},
      {"smiles": "CCCc1ccc(S(=O)(=O)N2CCN(C(C)C(=O)NC3CCCC3)CC2)cc1", "note": "(stereo not given)", "Potency": "inactive"},
      {"smiles": "COc1ccc(NC(=O)C(c2ccccc2)N2Cc3ccccc3C2=O)cc1", "note": "(stereo not given)", "Potency": "inactive"},
      {"smiles": "CCOc1ccc2nc(NC(=O)C3CCCN(S(=O)(=O)c4cccs4)C3)sc2c1", "note": "(stereo not given)", "activity, negative = inhibition": "inconclusive: -56.6% [inhibitor]"},
      {"smiles": "O=[N+]([O-])c1ncccc1OCc1ccccc1Br", "Potency": "inconclusive: 79.4 µM [inhibitor, partial curve, poor fit]"},
      {"smiles": "O=[N+]([O-])c1c(NCCO)cc(N2CCN(Cc3ccc4c(c3)OCO4)CC2)c2nonc12", "Potency": "inconclusive: 100 µM [inhibitor, single point]"},
      {"smiles": "O=[n+]1c2c(n([O-])c3cc(F)ccc31)CCCC2", "Potency": "inconclusive: 56.2 µM [inhibitor, partial curve]"},
      {"smiles": "COc1ccc(NC(=O)CN(C)C(=O)CSCC(=O)Nc2ccc(C)cc2)cc1", "Potency": "inconclusive: 79.4 µM [inhibitor, single point]"},
      {"smiles": "COc1ccc(N2CCN(C(=O)CN=C3NS(=O)(=O)C(c4ccc(C)cc4)=C3C)CC2)cc1", "Potency": "active: 39.8 µM"},
      {"smiles": "CCOC(=O)C1=C(COC(=O)/C=C/c2cccc(OC)c2OC)NC(=O)NC1C", "note": "(stereo not given)", "Potency": "inconclusive: 79.4 µM [inhibitor, partial curve, poor fit]"},
      {"smiles": "Fc1ccc(C(OCCCc2cnc[nH]2)c2ccc(F)cc2)cc1", "Potency": "inactive and active: 44.7 µM"},
      {"smiles": "CCCN1CC=C2C(C#N)=C(N)C(C#N)(C#N)C(c3cccc(OC)c3OC)C2C1", "note": "(stereo not given)", "activity, negative = inhibition": "inconclusive: -80.3% [inhibitor]"},
      {"smiles": "CSc1cccc(NC(=S)NCCCN2CCN(c3ccc(F)cc3)CC2)c1", "Potency": "active: 50.1 µM"},
      {"smiles": "CCC(=O)N1c2ccccc2CC1C(=O)NCCc1ccc(SC)cc1", "note": "(stereo not given)", "activity, negative = inhibition": "inactive: -7.93% [at 12.7 µM]"},
      {"smiles": "CCCCN(C)CC(O)Cn1cc(/C=C/C(=O)c2cccs2)c2ccccc21", "note": "(stereo not given)", "Potency": "inactive"},
      {"smiles": "CCOC(=O)Cn1c(C2CC(=O)N(c3ccc(C)cc3)C2)nc2ccccc21", "note": "(stereo not given)", "Potency": "inconclusive: 39.8 µM [inhibitor, single point]"},
      {"smiles": "COc1ccc(N2CCN(C(c3ccccc3)c3nnnn3Cc3ccc(F)cc3)CC2)cc1", "note": "(stereo not given)", "Potency": "active: 22.4 µM"},
      {"smiles": "COC(=O)CCC(=O)Oc1ccc(OC(=O)CCC(=O)OC)cc1", "Potency": "active: 50.1 µM"},
      {"smiles": "O=C(c1cccc([N+](=O)[O-])c1)N1CCOCC1", "Potency": "inactive"},
      {"smiles": "CCOC(=O)N1CCC(Nc2ccc(N3C(=O)C4CCCCC4C3=O)cc2[N+](=O)[O-])CC1", "note": "(stereo not given)", "Potency": "inconclusive: 39.8 µM [inhibitor, partial curve]"},
      {"smiles": "Cc1ccc(C)c2nc(SCC(=O)N3CCCc4ccccc43)c(C#N)cc12", "Potency": "inconclusive: 39.8 µM [inhibitor, single point]"},
      {"smiles": "O=C(CSc1nnnn1-c1ccccc1)NC(=O)Nc1ccc2c(c1)OCCO2", "Potency": "inconclusive: 89.1 µM [inhibitor, single point]"},
      {"smiles": "COc1ccc(/C=N/NC(=O)CN2CCCc3ccccc32)c(OC)c1", "activity, negative = inhibition": "inconclusive: -85.3% [inhibitor]"},
      {"smiles": "C=C(Br)Cn1c(CC)nc2ccccc21", "Potency": "inconclusive: 1.26 µM [inhibitor, partial curve, poor fit]"},
      {"smiles": "O=[N+]([O-])c1ccc(C(c2sc3nc(-c4ccco4)nn3c2O)N2CCN(Cc3ccccc3)CC2)cc1", "note": "(stereo not given)", "Potency": "inconclusive: 28.2 µM [inhibitor, single point]"},
      {"smiles": "C/C(Cn1nnc([N+](=O)[O-])n1)=N\\NC(=O)c1ccccc1Cl", "Potency": "inconclusive: 6.31 µM [inhibitor, single point]"},
      {"smiles": "COc1cc(-c2nnc(COC(=O)c3cc(C)no3)o2)cc(OC)c1OC", "Potency": "inconclusive: 2.24 µM [inhibitor, partial curve, poor fit]"},
      {"smiles": "N#Cc1ccc(C(=O)NC2=NCCS2)cc1", "Potency": "active: 39.8 µM"},
      {"smiles": "CCOC(=O)c1sc(NC(=O)c2cccc(S(=O)(=O)N3CCc4ccccc43)c2)c(C#N)c1C", "Potency": "inconclusive: 3.16 µM [inhibitor, single point]"},
      {"smiles": "CCOC(=O)CN1C(=O)C(O)=C(C(C)=O)C1c1ccc([N+](=O)[O-])cc1", "note": "(stereo not given)", "Potency": "inconclusive: 89.1 µM [inhibitor, single point]"},
      {"smiles": "O=C(Nc1ccc2c(c1)OCO2)c1cc(-c2cccc(Cl)c2)on1", "Potency": "inactive"},
      {"smiles": "CCCn1nc(C(=O)Oc2ccc3c(C)cc(=O)oc3c2)c2ccccc2c1=O", "Potency": "active: 14.1 µM"},
      {"smiles": "COc1ccc(C)cc1Nc1c2c(nc3ccccc13)CCC2", "Potency": "inactive"},
      {"smiles": "CCOC(=O)C1CCN(S(=O)(=O)c2cc(-c3cc(C)no3)ccc2OC)CC1", "Potency": "inactive"},
      {"smiles": "COc1ccc(O)c(/C=N/c2sc(C)c(C)c2C#N)c1", "Potency": "inconclusive: 11.2 µM [inhibitor, partial curve, poor fit]"},
      {"smiles": "Cc1cccc(-c2nc(C#N)c(NC3CCCCC3)o2)c1", "Potency": "inconclusive: 3.16 µM [inhibitor, full curve, poor fit]"},
      {"smiles": "O=C(COC(=O)Cn1cnc2ccccc2c1=O)NCCC1=CCCCC1", "Potency": "active: 11.2 µM"},
      {"smiles": "CSc1ccccc1NC(=O)CN(C)CC(=O)Nc1ccccc1N1CCOCC1", "Potency": "inactive"},
      {"smiles": "O=C(CCN1C(=O)S/C(=C\\c2ccc(Cl)cc2)C1=O)Nc1ccc(C(=O)O)cc1", "Potency": "inconclusive: 39.8 µM [inhibitor, partial curve, poor fit]"},
      {"smiles": "COc1ccc(-n2c(=O)cc(N3CCN(Cc4ccccc4)CC3)[nH]c2=O)cc1", "Potency": "inconclusive: 39.8 µM [inhibitor, single point]"},
      {"smiles": "CC(=O)c1ccc(N2CCN(C(=O)Nc3cn(CC(C)C)c(=O)c4ccccc34)CC2)cc1", "Potency": "inconclusive: 31.6 µM [inhibitor, partial curve, poor fit]"},
      {"smiles": "O=C(NNC(=O)c1c(F)cccc1F)c1ccccc1-n1cccc1", "Potency": "inconclusive: 28.2 µM [inhibitor, partial curve, poor fit]"},
      {"smiles": "COC(=O)c1c(C)oc2ccc(N(C(=O)Oc3ccccc3)S(=O)(=O)c3ccc(Cl)c([N+](=O)[O-])c3)cc12", "Potency": "inconclusive: 3.98 µM [inhibitor, full curve, poor fit]"},
      {"smiles": "Cc1ccnc(SC2CC(=O)N(c3ccc([N+](=O)[O-])cc3)C2=O)n1", "note": "(stereo not given)", "Potency": "active: 35.5 µM"}
    ]}
  ]
}
